# Experimental data reported in the RNAGym collection of RNA variant scans (doi:10.7554/elife.90254).
# The source gives no read counts; variants with many changes may rest on few reads.
# B1: LINE1-mini (parent)
# chain: GGCAGAGCUCAACACAGCGUGGCAAAGUGGCUGUGGCUAGACUGCC
# Variants of: B1
# Experiment: self-cleavage, relative activity (ratio to wild type); higher = more cleavage; in vitro, sequencing; the parent is a self-cleaving ribozyme
row,Variant,self-cleavage
1,G1A G29U U43A,0.04
2,C3G G30C C37U C45U,0.08
3,A4U C10A G19U G27U,0.03
4,G1A C23U U34C A39C,0.04
5,G19A A25C G40A,0.19
6,G7A U9C A26U,0.19
7,G2U G22A C45U,0.1
8,G1A A12G G35A,0.04
9,C8G A11C G17C G33U,0.02
10,G30U G40C G44C,0.06
11,G22A G30A G33U C42A,0.05
12,A6G A14G C37A,0.1
13,A14U G30U A41U G44U,0.04
14,A6C C15A U38A,0.05
15,C13G A39C U43A,0
16,C15U C23U A41G,0.68
17,A6U A12G A16C U20C G36C C42A,0.04
18,G2A G19A U20A C23U U38C,2.54
19,C3U U38A A39G,0.15
20,G1A A6C A24G,0.5
21,G2A G19C C23U,0.1

row,Variant,self-cleavage
1,G7C U20A U28A U32A U34C C37A,0.01
2,G27C U38A A39G,0.08
3,A11G A12U U20G G40U,0.02
4,C3A A6G C8A,1.14
5,C13U A25U U32A,0.18
6,C23A A24C C37G U43G,0
7,C13G C37U A41U C42G U43C,0.12
8,A16C G19C U38A,0.33
9,G21U G30U G33A U38G,0.01
10,G2C U32C G36U,0.02
11,G17A U32C U43A,0.08
12,C18U G30A G40A,0.09
13,A6U G19C U34C,0.26
14,G17C U28G C46A,1.09
15,U9C C10U A24U G36A,0.05
16,A4U A14G G19C A24U U28G U32A,0.05
17,C8G C23A G27C,0.06
18,U9A C10U U38C,0.15
19,C3A G27C G33C G40C,0.14
20,C23U G35C G36A C37U,0.14
21,C3U A11G A14C C31A G40U,0

row,Variant,self-cleavage
1,G1U A4G G5C G30U G40C C46U,0.08
2,U9G C15U A25U U32A,0.1
3,G7C G22C G30C A39U,0.06
4,A4C A12G G36A,0.1
5,C10G A16C U34A,0.01
6,G2U U20A A26G,0.02
7,G2U A4U C10G G30A C31G U38C,0.01
8,A4U G19U G27U U34C A41U,0.07
9,G7A C8G C23U U32C U34C C37A,0.06
10,A4U U20A G29U C31A,0.03
11,A16U G19U C31A G33A,0.08
12,G17U C18G G30A C31A G33U,0.61
13,G1C A4C G21C G33U C37G,0.02
14,U9C C18G U28C G33U G35A G36A C42U,0.01
15,A4G A11G G33A U34C,0.02
16,C10A A14G U20G,0
17,C8A G17U G27C C31U,0.33
18,C10A C23U A24C U28C,0.02
19,G2U C10G G19U A26G U34G C46G,0.01
20,U9C G40U U43A,0.02
21,A4G C13U A25G G33U,0.3

row,Variant,self-cleavage
1,C37U U38G C45A,0.01
2,C23U C42A G44A,0.15
3,A6U G35U C37U A39U C42G,0
4,C3U A4U G17C C46U,0.01
5,G5A C15G C18U G29U U32C,0.05
6,C8U A11G U32C,0.02
7,C10G A12G C45A,0.01
8,C13A A14C A26G U28C G29U C37A,0.11
9,G7U U9C C37A,0.02
10,A14U A16G C37G A41G,0.02
11,A16U U20G U38C C42G,0.01
12,C10U A14G G21U A41C,0.04
13,A14G U20G U32C G36C A39C,0.03
14,C10A C18A G21U G30A G33U,0
15,G1A G5U G7A G29U,0
16,A4U C13A A24C U32A G36A A39C,0
17,G7C C13A A16G C45A,0.03
18,A11G A39C G40U G44C C45A,0
19,A4U C10U A14G,0.03
20,C37U A41U U43G,0.04
